Laboratory results published in PubChem BioAssay (Tox21).
Values joined by “and” are separate entries in the source; they are usually repeats but may differ in a detail not shown here. Identical values can stand only once. Where a structure was tested more than once in an assay, its records may differ in their call. Active and inactive are the calls of the source. Unless noted, calls follow the shape of the dose curve; as a rule, active = well fitted curve in the direction sought with a large enough effect in the repeat runs; inconclusive = weak or mixed curves; inactive = no such curve, though single readings can be large; an effect the other way counts as inactive or inconclusive.

Assays:
[1] = qHTS assay to identify small molecule antagonists of the thyroid receptor (TR) signaling pathway - cell viability counter screen (AID 743064); conditions: GH3.TRE-Luc viability, CellTiter-Fluor, 24 h; activity change, negative = cytotoxic: at 70.3 µM (top of the series); also: nearly all actives have a fitted effect of over 50% in size; also: potency is read from the fitted curve at half-maximal effect
In short: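 In-well cytotoxicity read by CellTiter-Fluor (30 min, 37 C) following 23.5 h exposure of GH3 cells bearing a TRE-luciferase sensor. Compounds were added alongside 1 nM (final) T3 to drive TR transactivation.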

[2] = tested on: thyroid hormone receptor (rat, GH3 cells); experiment: qHTS assay to identify small molecule agonists of the thyroid receptor (TR) signaling pathway (AID 743066; calls by dose curve; also: potency is read from the fitted curve at half-maximal effect); conditions: GH3.TRE-Luc cells, TR agonist luciferase, 24 h; activation: at 83.9 µM (top of the series) unless noted
[3] = molecular target: Estrogen receptor (Homo sapiens) (UniProt P03372); experiment: qHTS assay to identify small molecule agonists of the estrogen receptor alpha (ER-alpha) signaling pathway (AID 743075; calls by dose curve; also: potency is read from the fitted curve at half-maximal effect); conditions: HEK293 ER-alpha-UAS-bla, beta-lactamase FRET ratio, 18 h; activation: at 70.1 µM (top of the series)
UniProt P03372, sequence (P03372 whole entry, looked up): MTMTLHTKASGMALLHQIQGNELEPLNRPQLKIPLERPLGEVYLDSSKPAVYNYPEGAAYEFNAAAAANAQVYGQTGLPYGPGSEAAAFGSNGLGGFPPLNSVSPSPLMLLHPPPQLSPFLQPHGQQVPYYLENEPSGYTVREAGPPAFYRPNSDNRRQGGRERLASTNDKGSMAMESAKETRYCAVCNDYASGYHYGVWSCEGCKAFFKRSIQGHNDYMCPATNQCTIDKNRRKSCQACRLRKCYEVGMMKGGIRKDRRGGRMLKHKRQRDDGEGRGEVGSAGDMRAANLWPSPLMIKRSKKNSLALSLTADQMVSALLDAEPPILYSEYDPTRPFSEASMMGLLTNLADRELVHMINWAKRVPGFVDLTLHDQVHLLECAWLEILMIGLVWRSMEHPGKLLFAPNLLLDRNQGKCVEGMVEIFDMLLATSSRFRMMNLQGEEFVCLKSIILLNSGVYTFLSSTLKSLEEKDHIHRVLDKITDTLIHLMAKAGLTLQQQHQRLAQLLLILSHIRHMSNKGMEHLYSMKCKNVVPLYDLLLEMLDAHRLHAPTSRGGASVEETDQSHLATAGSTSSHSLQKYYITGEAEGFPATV

[4] = molecular target: Estrogen receptor (Homo sapiens) (UniProt P03372); experiment: qHTS assay to identify small molecule agonists of the estrogen receptor alpha (ER-alpha) signaling pathway using the BG1 cell line (AID 743079); conditions: BG1Luc4E2 cells, ERE-luciferase agonist, 22 h; activation: at 70.3 µM (top of the series) unless noted; also: nearly all actives have a fitted effect of over 20% in size; also: potency is read from the fitted curve at half-maximal effect; as to activation: % is scaled to controls: 0 for no effect and ±100 for the full control effect
[5] = qHTS assay to identify aromatase inhibitors - cell viability counter screen (AID 743084);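 also: cells stimulated with testosterone during compound exposure; nearly all actives have a fitted effect of over 55% in size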; also: potency is read from the fitted curve at half-maximal effect
[6] = molecular target: Aryl hydrocarbon receptor (Homo sapiens) (UniProt P35869); experiment: qHTS assay to identify small molecule that activate the aryl hydrocarbon receptor (AhR) signaling pathway (AID 743085); also: potency is read from the fitted curve at half-maximal effect; nearly all actives have a fitted effect of over 15% in size
UniProt P35869, sequence (P35869 whole entry, looked up): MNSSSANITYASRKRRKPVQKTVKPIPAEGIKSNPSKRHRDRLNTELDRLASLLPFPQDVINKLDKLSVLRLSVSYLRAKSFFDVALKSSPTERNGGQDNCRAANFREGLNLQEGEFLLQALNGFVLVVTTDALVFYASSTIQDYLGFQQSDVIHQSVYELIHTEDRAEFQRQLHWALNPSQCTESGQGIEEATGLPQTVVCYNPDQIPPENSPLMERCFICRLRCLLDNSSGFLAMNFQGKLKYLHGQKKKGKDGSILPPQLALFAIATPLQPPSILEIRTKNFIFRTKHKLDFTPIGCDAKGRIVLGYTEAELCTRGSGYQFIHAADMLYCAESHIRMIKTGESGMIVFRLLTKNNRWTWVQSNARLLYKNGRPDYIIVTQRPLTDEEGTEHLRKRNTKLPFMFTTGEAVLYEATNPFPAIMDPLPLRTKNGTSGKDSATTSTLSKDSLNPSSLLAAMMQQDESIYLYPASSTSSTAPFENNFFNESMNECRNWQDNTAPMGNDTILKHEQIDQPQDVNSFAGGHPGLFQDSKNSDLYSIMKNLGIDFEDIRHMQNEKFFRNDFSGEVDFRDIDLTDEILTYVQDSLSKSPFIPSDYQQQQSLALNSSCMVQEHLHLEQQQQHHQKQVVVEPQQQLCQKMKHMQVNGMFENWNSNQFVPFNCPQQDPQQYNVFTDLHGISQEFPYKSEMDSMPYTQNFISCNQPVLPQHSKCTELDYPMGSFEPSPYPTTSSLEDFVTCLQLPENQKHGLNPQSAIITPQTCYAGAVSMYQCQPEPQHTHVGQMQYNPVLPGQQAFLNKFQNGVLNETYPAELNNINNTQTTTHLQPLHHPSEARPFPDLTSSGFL
In short: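 Luminescence (ONE-Glo) from a dioxin-responsive-element luciferase reporter in HG2L7.5c1 HepG2 cells after 24 hr compound exposure at 37C; viability measured by CellTiter-Fluor fluorescence beforehand.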

[7] = molecular target: Estrogen receptor (Homo sapiens) (UniProt P03372); experiment: qHTS assay to identify small molecule antagonists of the estrogen receptor alpha (ER-alpha) signaling pathway (AID 743069; active = well fitted curve in the direction sought with a large enough effect in the signal ratio in the repeat runs, not every such curve was filed as active; inconclusive = weak or mixed curves, or effect the other way; inactive = no such curve, though single readings can be large or run the other way; the % refers to the signal ratio; also: potency is read from the fitted curve at half-maximal effect; as to activity, negative = inhibition: % is scaled to controls: 0 for no effect and ±100 for the full control effect); conditions: HEK293 ER-alpha-UAS-bla, beta-lactamase ratio, antagonist mode; activity, negative = inhibition: at 69.4 µM (top of the series)
In short: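 Fluorescence intensity from a beta-lactamase FRET substrate served as the read-out. Cells: HEK293 with stably integrated ER-alpha-UAS-bla reporter. Agonist 17beta-estradiol was co-added with compounds; incubation 18 hr at 37C, substrate 2 hr at room temperature.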

[8] = qHTS assay to identify small molecule antagonists of the estrogen receptor alpha (ER-alpha) signaling pathway - cell viability counter screen (AID 743074; calls by dose curve; also: nearly all actives have a fitted effect of over 45% in size; also: potency is read from the fitted curve at half-maximal effect)
[9] = qHTS assay to identify small molecule antagonists of the estrogen receptor alpha (ER-alpha) signaling pathway using the BG1 cell line (AID 743080; calls by dose curve;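 also: BG1 cells stimulated with 17beta-estradiol alongside compound; nearly all actives have a fitted effect of over 25% in size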; also: potency is read from the fitted curve at half-maximal effect); conditions: BG1Luc4E2 ERE-luciferase antagonist mode, luminescence; activity change, negative = inhibition: at 70.3 µM (top of the series) unless noted
In short: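 BG1-Luc-4E2 cells (endogenous full-length ER-alpha, stable 4×ERE-luciferase) were starved 5 days in phenol-red-free medium with 10% charcoal-stripped FBS, plated 24 h, then given compound plus 17beta-estradiol for 21.5 h at 37 C; ONE-Glo luminescence read after 30 min.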

[10] = qHTS assay to identify small molecule antagonists of the estrogen receptor alpha (ER-alpha) signaling pathway using the BG1 cell line - cell viability counter screen (AID 743081);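 also: compound given together with 17beta-estradiol as the ER stimulus; potency is read from the fitted curve at half-maximal effect; nearly all actives have a fitted effect of over 45% in size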
[11] = qHTS assay to identify small molecule that activate the aryl hydrocarbon receptor (AhR) signaling pathway - cell viability counter screen (AID 743086); also: nearly all actives have a fitted effect of over 45% in size; also: potency is read from the fitted curve at half-maximal effect
In short: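 Cytotoxicity counter screen: CellTiter-Fluor signal (30 min, 37 C) in 4000 HepG2 cells/well carrying the DRE-luciferase reporter, following 24 h compound exposure at 37 C.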

[12] = molecular target: Peroxisome proliferator-activated receptor gamma (Homo sapiens) (UniProt P37231); experiment: qHTS assay to identify small molecule agonists of the peroxisome proliferator-activated receptor gamma (PPARg) signaling pathway (AID 743094; active = well fitted activation curve with a large enough effect in the signal ratio in the repeat runs, not every such curve was filed as active; inconclusive = weak or mixed curves, or effect the other way; inactive = no such curve, though single readings can be large or run the other way; the % refers to the signal ratio; also: potency is read from the fitted curve at half-maximal effect; as to activation: % is scaled to controls: 0 for no effect and ±100 for the full control effect); conditions: HEK293H PPARg-UAS-bla, beta-lactamase FRET ratio, 17 h; activation: at 57 µM (top of the series) unless noted
UniProt P37231, sequence (P37231 whole entry, looked up): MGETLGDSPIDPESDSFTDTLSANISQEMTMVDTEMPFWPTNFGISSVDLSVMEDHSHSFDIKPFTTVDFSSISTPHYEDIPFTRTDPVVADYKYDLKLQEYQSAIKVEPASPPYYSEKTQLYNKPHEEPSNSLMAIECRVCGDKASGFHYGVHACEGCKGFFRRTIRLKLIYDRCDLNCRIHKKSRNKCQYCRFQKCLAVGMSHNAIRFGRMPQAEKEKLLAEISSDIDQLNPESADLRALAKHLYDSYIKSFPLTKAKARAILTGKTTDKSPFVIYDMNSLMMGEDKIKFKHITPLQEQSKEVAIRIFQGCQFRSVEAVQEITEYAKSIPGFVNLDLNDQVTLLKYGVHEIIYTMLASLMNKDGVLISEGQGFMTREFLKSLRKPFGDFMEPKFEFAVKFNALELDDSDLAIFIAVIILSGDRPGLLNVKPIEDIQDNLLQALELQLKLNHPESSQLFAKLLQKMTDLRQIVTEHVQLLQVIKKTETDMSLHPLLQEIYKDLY
In short: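 HEK293H PPARg-bla cells, 5 h settle at 37C/5% CO2; compound (DMSO) 17 h, 37C; B/G FRET substrate 1 h RT; fluorescence intensity read-out. qHTS format.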

[13] = molecular target: Peroxisome proliferator-activated receptor gamma (Homo sapiens) (UniProt P37231); experiment: qHTS assay to identify small molecule antagonists of the peroxisome proliferator-activated receptor gamma (PPARg) signaling pathway (AID 743191; calls by dose curve; also: nearly all actives have a fitted effect of over 30% in size; also: potency is read from the fitted curve at half-maximal effect; as to ratio activity, negative = inhibition: % is scaled to controls: 0 for no effect and ±100 for the full control effect); conditions: HEK293H PPARg-UAS-bla, beta-lactamase ratio, antagonist, 17 h
In short: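 Beta-lactamase reporter under UAS control in HEK293H PPARg-bla cells; compound treatment 17 h at 37C. Read-out: fluorescence intensity after 1 h room-temperature incubation with LiveBLAzer B/G FRET substrate.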

Aromatase (Homo sapiens) = Aromatase (Homo sapiens) (UniProt P11511); experiment: qHTS assay to identify aromatase inhibitors (AID 743083); also: potency is read from the fitted curve at half-maximal effect; nearly all actives have a fitted effect of over 55% in size
UniProt P11511, sequence (P11511 whole entry, looked up): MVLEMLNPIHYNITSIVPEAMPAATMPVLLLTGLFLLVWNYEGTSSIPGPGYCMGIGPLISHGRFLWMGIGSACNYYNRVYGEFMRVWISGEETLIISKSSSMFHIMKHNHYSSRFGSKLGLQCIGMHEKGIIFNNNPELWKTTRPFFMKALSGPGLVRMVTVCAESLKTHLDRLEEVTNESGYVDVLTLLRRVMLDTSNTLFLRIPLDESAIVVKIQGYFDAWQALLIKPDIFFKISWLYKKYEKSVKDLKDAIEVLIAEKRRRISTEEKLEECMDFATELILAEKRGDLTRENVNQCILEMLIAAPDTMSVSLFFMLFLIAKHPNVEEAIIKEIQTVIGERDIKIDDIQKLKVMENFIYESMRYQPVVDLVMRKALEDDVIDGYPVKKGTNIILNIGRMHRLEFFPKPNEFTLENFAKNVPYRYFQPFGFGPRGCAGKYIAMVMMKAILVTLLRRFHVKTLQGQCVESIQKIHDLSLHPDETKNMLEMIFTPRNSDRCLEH

[14] = qHTS assay to identify small molecule antagonists of the thyroid receptor (TR) signaling pathway (AID 743065); also: % is scaled to controls: 0 for no effect and ±100 for the full control effect; nearly all actives have a fitted effect of over 55% in size
In short: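 Antagonism measured as loss of luciferase signal in GH3 cells stably carrying a TRE-luciferase reporter, co-treated with compound and T3 (1 nM final) for 23.5 h at 37 C. Viability was read in the same well by CellTiter-Fluor.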

[15] = ratio activity, negative = inhibition: at 62.6 µM (top of the series) unless noted
Tags tell the direction and shape of the fitted curve or compound fluorescence and quenching.

## NNC(=S)NN
[1]
  Potency: inconclusive: 27.3 µM [rising, single point]
[2]
  Potency: active: 61.1 µM
[3]
  Potency: inconclusive: 61.6 µM [falling, single point]
[4]
  activation: inconclusive: 7.96% [phenotype inactive]
[5]
  Potency: inconclusive: 62.8 µM [cytotoxic, single point]
[6]
  Potency: inconclusive: 39.6 µM [activator, partial curve, poor fit] and inconclusive: 13.7 µM [activator, partial curve, poor fit]

## Cc1ccc2c(c1N)C(=O)c1ccccc1C2=O
[1]
  Potency: inconclusive: 48.6 µM [cytotoxic, partial curve, poor fit]
[7]
  Potency: inactive and inconclusive: 155 nM [activator, full curve]
[8]
  Potency: inconclusive: 21.9 µM [rising, single point]
[4]
  Potency: active: 3.03 µM and active: 4.33 µM
[9]
  Potency: inconclusive: 958 nM [rising, full curve] and inconclusive: 2.43 µM [rising, full curve]
[10]
  Potency: active: 30.3 µM and active: 27.3 µM
[5]
  Potency: inconclusive: 9.58 µM [cytotoxic, full curve] and active: 43.3 µM
[11]
  Potency: inconclusive: 5.39 µM [falling, full curve]
[12]
  activation: inconclusive: 12.8%
[13]; [15]
  ratio activity, negative = inhibition: inconclusive: -12.9% and inconclusive: -5.4%

## CCC(C)c1cccc(C(C)CC)c1O (stereo unspecified)
[1]
  Potency: inconclusive: 68.6 µM [cytotoxic, single point]
[7]
  Potency: inactive
[8]
  Potency: inactive
Aromatase (Homo sapiens)
  Potency: inconclusive: 48.6 µM [inhibitor, partial curve]
[5]
  Potency: inconclusive: 30.6 µM [cytotoxic, partial curve, poor fit]

## Nc1c(Cl)c(Cl)nc(C(=O)O)c1Cl
[1]
  Potency: inactive
[2]
  Potency: inconclusive: 25.1 µM [activator, full curve, poor fit]
[7]
  Potency: inconclusive: 25.3 µM [rising, full curve]
[8]
  Potency: inconclusive: 25.3 µM [cytotoxic, full curve]
[9]
  Potency: inactive
[6]
  Potency: active: 34 µM

## CC[C@H](C)[C@H]1O[C@]2(C=C[C@@H]1C)C[C@@H]1C[C@@H](C/C=C(\C)[C@@H](O[C@H]3C[C@H](OC)[C@@H](O[C@H]4C[C@H](OC)[C@@H](O)[C@H](C)O4)[C@H](C)O3)[C@@H](C)/C=C/C=C3\CO[C@@H]4[C@H](O)C(C)=C[C@@H](C(=O)O1)[C@]34O)O2
[1]
  Potency: inconclusive: 33.5 µM [cytotoxic, single point] and active: 3.22 µM
[2]
  Potency: inconclusive: 3.22 µM [inhibitor, partial curve, poor fit]
  activation: inconclusive: -9.21% [phenotype inactive]
[7]
  Potency: inconclusive: 23.9 µM and active: 4.59 µM [inconclusive]
[8]
  Potency: active: 25.8 µM
[3]
  Potency: inconclusive: 32.5 µM [falling, single point]
[4]
  Potency: inconclusive: 14.4 µM [inhibitor, partial curve]
[9]
  Potency: inconclusive: 36.1 µM [falling, partial curve]
[10]
  Potency: inconclusive: 40.5 µM [cytotoxic, single point]
[5]
  Potency: active: 18.1 µM
[12]
  Potency: inconclusive: 5.15 µM [rising, partial curve]
  activation: inconclusive: -16.8%

## CCCCCCCCCCCCCC[P+](CCCCCC)(CCCCCC)CCCCCC
[1]
  Potency: active: 6.14 µM and active: 5.49 µM and active: 3.06 µM
[2]
  Potency: inconclusive: 2.19 µM [inhibitor, partial curve, poor fit]
[7]
  Potency: active: 982 nM [inconclusive] and active: 985 nM [inconclusive] and active: 775 nM [inconclusive]
[8]
  Potency: active: 13.9 µM and active: 11.1 µM and inconclusive: 436 nM [cytotoxic, full curve, poor fit]
[4]
  Potency: inconclusive: 3.45 µM [inhibitor, full curve] and inconclusive: 3.09 µM [inhibitor, full curve] and inconclusive: 1.93 µM [inhibitor, full curve]
[9]
  Potency: active: 4.88 µM and active: 3.89 µM and active: 3.43 µM
[10]
  Potency: active: 19.4 µM and active: 13.8 µM and inconclusive: 19.3 µM [cytotoxic, full curve]
[5]
  Potency: inconclusive: 1.72 µM [cytotoxic, full curve]
[12]
  Potency: inconclusive: 55.2 µM [cytotoxic, single point] and inconclusive: 55.4 µM [cytotoxic, single point]
  activation: inconclusive: -17%
[13]; [15]
  Potency: inconclusive: 61.9 µM [cytotoxic, single point] and inconclusive: 19.7 µM [cytotoxic, partial curve] and inconclusive: 4.36 µM [activator, full curve]

## CCCOCC(=Nc1ccc(Cl)cc1C(F)(F)F)n1ccnc1
[1]
  Potency: active: 7.69 µM
[2]
  Potency: inconclusive: 8.63 µM [inhibitor, partial curve, poor fit]
[8]
  Potency: inconclusive: 54.9 µM [cytotoxic, single point]
[10]
  Potency: inconclusive: 68.5 µM [cytotoxic, single point]
[5]
  Potency: active: 12.2 µM
[12]
  Potency: inconclusive: 38.9 µM [falling, partial curve]
[13]; [15]
  Potency: inconclusive: 34.6 µM [cytotoxic, partial curve]

## ClC1=C(Cl)[C@]2(Cl)[C@@H]3[C@@H](Cl)[C@H]4O[C@H]4[C@@H]3C1(Cl)C2(Cl)Cl
[1]
  Potency: inconclusive: 61.1 µM [cytotoxic, partial curve, poor fit]
[2]
  Potency: inconclusive: 30.6 µM [inhibitor, partial curve, poor fit]
[7]
  Potency: inactive
[4]
  Potency: inconclusive: 77 µM [inhibitor, single point]
Aromatase (Homo sapiens)
  Potency: inconclusive: 68.6 µM [inhibitor, single point]
[13]; [15]
  ratio activity, negative = inhibition: inconclusive: -8.25%

## ClC(Cl)=C(Cl)Cl
[1]
  Potency: inactive
[14]
  Potency: inactive
[12]
  Potency: inactive
[13]; [15]
  ratio activity, negative = inhibition: inconclusive: 5.91%

## O=C1C2CC=CCC2C(=O)N1SC(Cl)(Cl)Cl (stereo unspecified)
[1]
  Potency: active: 6.68 µM and inconclusive: 68.3 µM [cytotoxic, single point] and active: 2.39 µM
[2]
  Potency: inconclusive: 12 µM [inhibitor, partial curve, poor fit]
  activation: inconclusive: -9.56% [phenotype inactive]
[7]
  Potency: inconclusive: 19 µM [rising, partial curve] and inconclusive: 24.1 µM [rising, partial curve]
[8]
  Potency: inconclusive: 26.8 µM [cytotoxic, single point] and inconclusive: 54.7 µM [cytotoxic, single point] and inconclusive: 34.1 µM [cytotoxic, partial curve, poor fit]
[3]
  Potency: inconclusive: 0.614 µM [falling, full curve]
[4]
  Potency: inconclusive: 15 µM [inhibitor, partial curve] and inconclusive: 26.9 µM [inhibitor, partial curve]
  activation: inconclusive: 7.84% [phenotype inactive]
[10]
  Potency: inconclusive: 67.5 µM [cytotoxic, single point]
[5]
  Potency: inconclusive: 8.41 µM [cytotoxic, full curve]
[11]
  Potency: active: 42.6 µM
[12]
  Potency: inconclusive: 8.57 µM [rising, full curve, poor fit]
[13]; [15]
  Potency: inconclusive: 6.81 µM [rising, partial curve]

## c1csc(-c2ccc(-c3cccs3)s2)c1
[1]
  Potency: inconclusive: 43.3 µM [rising, partial curve, poor fit]
[2]
  Potency: active: 61.1 µM
[7]
  Potency: inconclusive: 24.5 µM [activator, partial curve]
[8]
  Potency: inconclusive: 21.9 µM [rising, full curve, poor fit]
[3]
  Potency: inconclusive: 34.7 µM [activator, partial curve]
[9]
  Potency: inconclusive: 34.4 µM [rising, partial curve]
[12]
  Potency: active: 21.9 µM
[13]; [15]
  ratio activity, negative = inhibition: inconclusive: 2.34%

## C=CC(=O)OCCCCOC(=O)C=C
[1]
  Potency: active: 17.2 µM
[7]
  Potency: inconclusive: 27.5 µM [activator, partial curve]
[9]
  Potency: inconclusive: 19.3 µM [rising, partial curve]
[10]
  Potency: inconclusive: 77 µM [cytotoxic]
[12]
  Potency: active: 9.77 µM
[13]; [15]
  Potency: inconclusive: 49 µM [rising, partial curve]

## CCCCCCCCCCCOC(=O)c1ccccc1C(=O)OCCCCCCCCCCC
[1]
  Potency: inactive
[7]
  activity, negative = inhibition: inconclusive: -27.9%
[4]
  Potency: active: 26.6 µM and inactive
[10]
  Potency: inconclusive: 33.5 µM [rising, partial curve, poor fit]
[11]
  Potency: inactive
[13]; [15]
  ratio activity, negative = inhibition: inconclusive: -8.93% and inconclusive: -6.43%

## O=c1nc(O)n(Cl)c(=O)n1Cl
[1]
  Potency: inactive
[2]
  activation: inconclusive: -0.0222% [phenotype inactive]
[13]; at 62.6 µM (top of the series)
  ratio activity, negative = inhibition: inactive: -4.11% and inactive: 11.5%
[13]; [15]
  ratio activity, negative = inhibition: inconclusive: 5.18%

## CC1(C)[C@H](/C=C2\CCSC2=O)[C@@H]1C(=O)OCc1coc(Cc2ccccc2)c1
[1]
  Potency: inconclusive: 54.5 µM [cytotoxic, partial curve, poor fit]
[7]
  activity, negative = inhibition: inconclusive: -26.6%
[4]
  Potency: inconclusive: 30.6 µM [inhibitor, partial curve]
[9]
  Potency: active: 68.6 µM
[5]
  Potency: inactive
[12]
  Potency: inconclusive: 61.6 µM [cytotoxic, partial curve, poor fit]
[13]; [15]
  Potency: inconclusive: 12.3 µM [rising, partial curve, poor fit]
